The text below walks through data of PubChem BioAssay AID1963576 (National Center for Advancing Translational Sciences (NCATS), 2024).

Each structure is given as a SMILES string. About 60 (0.1%) of roughly 46,000 compounds were called active. About 3% were inconclusive and are not listed. The call rests on the fitted dose curve; in most records, active means well fitted inhibition curve with a large enough effect; inconclusive means small, poorly fitted or top-dose-only effect; inactive means no such curve, though single readings can be large or run the other way. This is one part of the list.

A short description of this experiment: Primary qHTS assay for Inhibitors of ovarian cancer metastasis using an organotypic tumor microenvironment (TME) model. Further: nearly all actives have a fitted effect of over 65% in size.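 On activity change, negative = inhibition: plate controls were DMSO wells for no effect and tomatine positive control wells for full effect.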 The note with it: SKOV3ip1-GFP adhesion/invasion on 3D omental model, fluorescence; series mostly up to 45.8 µM; activity change, negative = inhibition: at the top concentration. In outline: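 A 3D layer of primary human omental fibroblasts, mesothelial cells, fibronectin and collagen I, grown 48 hr, received SKOV3ip1-GFP cells in serum-free medium plus compounds at 0.36-46 umol/L. After 2 hr RT and 16 hr 37 C, fixed adherent GFP cells were counted; normalized to DMSO and tomatine.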
Turning to `CCCSc1oc(-c2ccco2)nc1S(=O)(=O)c1ccc(Cl)cc1`, the “activity change, negative = inhibition” value is inactive: -5.73%.
On the same count and under the same terms, as for `Cc1ccc2c(=O)cc(C(=O)Nc3ccc(S(=O)(=O)N4CCCCC4)cc3)oc2c1`, the figure is inactive: -3.05%.
For `COC(=O)C(NC(=O)CCc1c(C)nc2cc(-c3cccc(F)c3)nn2c1C)C(C)C` (configuration not stated), the compound was called inactive.
Still for that read-out and setting: next, `COC(=O)c1ccccc1NC(=O)CCC(=O)N1CC(C)Sc2ccccc21` (configuration not stated): “inactive”.
For `CCOc1ccc(C(=O)Nc2nc(-c3ccc(Br)cc3)ns2)cc1`, the “activity change, negative = inhibition” value was inactive: 6.33%.
Take `CC1CCn2c(nc3cc(C(=O)NCCc4ccccc4)ccc32)C1` (configuration not stated): the call was inactive.
In the case of `COc1ccc(NC(=O)Cn2c(SCc3ccc(F)cc3)nc3cccnc32)c(OC)c1`, the “activity change, negative = inhibition” value was inactive: 1%.
Still for that read-out and setting: next, `COc1cccc(N2CCN(C(=O)c3cc4c(=O)n(Cc5cccnc5)ccc4nc3C)CC2)c1`: inactive: 5.68%; `CCC(C)n1c(=N)c(C(=O)NC2CCCC2)cc2c(=O)n3ccccc3nc21` (configuration not stated): inactive: -12.4%; `Cc1ccc(NC(=O)CSc2cn(CC(=O)N3CCOCC3)c3ccccc23)cc1Cl`: inactive: 4.66%.
Same read-out and setting: as for `CCOc1ccc(CNC(=O)Nc2ccc3c(c2)N(C)C(=O)c2ccccc2S3)cc1`, the figure is inactive: 5.39%.
Consider `CCC(Cc1ccccc1)NC(=O)CCS(=O)(=O)c1cc2c(cc1Cl)NC(=O)CO2` (configuration not stated), for which the compound was called inactive.
On to `COc1ccc(NC(=O)C2CCCN(c3cnccn3)C2)c(OC)c1` (configuration not stated), for which the “activity change, negative = inhibition” value was inactive: 5.37%.
Still for that read-out and setting: next, `CCOC(=O)/C(C#N)=C/c1ccc(-c2ccccc2)o1`: inactive: -11.3%; `Cc1ccc(-n2ncc3c(NC4CCCC4)ncnc32)cc1`: inactive: 0.487%.
Still for that read-out and setting: next, `NS(=O)(=O)OC[C@@H]1C[C@@H](n2ccc3c(N[C@H]4CCc5ccccc54)ncnc32)C[C@H]1O`: inactive: -6.53%.
Regarding `COc1ccc2sc(N(Cc3cccnc3)C(=O)C3COc4ccccc4O3)nc2c1` (configuration not stated), the call was inactive.
`O=S(=O)(c1ccccc1)c1nnn2c1nc(N1CCN(c3ccccc3)CC1)c1cc(Cl)ccc12`: the “activity change, negative = inhibition” value was inactive: 2.39%.
On to `Cc1ccc(NC(=O)CN2C(=O)CSc3ccc(S(=O)(=O)N(C)C)cc32)c(C)c1`, for which the result was inactive.
`Cc1ccc2c(c1)C(c1ccccc1)N(C(=O)c1ccc(S(=O)(=O)N3CCCC3)cc1)CC(=O)N2` (configuration not stated): the “activity change, negative = inhibition” value was inactive: -0.843%.
The same measure, in the same setting: as for `Cn1c(=O)c2nc3ccc(NC(=O)C(F)(F)F)cc3nc2n(C)c1=O`, the figure is inactive: 3.95%.
The same measure, in the same setting: as for `COc1ccc2sc(N(Cc3cccnc3)C(=O)c3cccs3)nc2c1`, the figure is inactive: 7.18%; as for `N=C(N)c1ccc(OCCCCCOc2ccc(C(=N)N)cc2)cc1`, inactive: 15.1%.
`Cc1cc(C)cc(NC(=O)c2sc3nc4n(c(=O)c3c2C)N=C(c2ccc(F)cc2)CS4)c1`: the compound was called inactive.
On to `Cc1nc(SCc2ccccc2Cl)c(C#N)c(C)c1C`, for which the “activity change, negative = inhibition” value was inactive: -14.8%.
Still for that read-out and setting: as for `O=C(Cn1cc2c(n1)CCCC2)Nc1cc(C(F)(F)F)ccc1Cl`, the figure is inactive: -0.808%.
Turning to `CCCn1cc(S(=O)(=O)c2ccccc2)c(=O)c2cc(F)c(N3CCCCCC3)cc21`, the compound was called inactive.
`Cc1nnc(N2CCN(c3cccc(Cl)c3)CC2)c2c1nnn2Cc1ccc(F)cc1`: the “activity change, negative = inhibition” value is inactive: 1.98%.
The same measure, in the same setting: as for `COc1ccc(C)cc1NC(=O)c1c(C(=O)Nc2cccc(C)c2C)sc2nc(C)cc(=O)n12`, the figure is inactive: 3.08%; as for `COc1cccc(-c2nn(C)c3sc(C(=O)NCCc4cccc(C)c4)cc23)c1`, inactive: 8.31%; as for `O=C(Nc1ccc2nc(SCCOc3ccccc3Cl)sc2c1)c1ccco1`, inactive: -5.53%.
On the same count and under the same terms, next, `CCc1cccc(NC(=O)CSc2n[nH]c(-c3ccccc3Cl)n2)c1`: inactive: 4.85%; `CCCNC(=O)Cn1ncc2c3ccccc3n(CCC)c2c1=O`: inactive: 2.76%.
In the case of `CCOc1ccc(OCC)c(NC(=O)c2cnn(-c3ccc(F)cc3)c2C2CCN(C(=O)OC(C)(C)C)CC2)c1`, the “activity change, negative = inhibition” value is inactive: -2.61%.
As to `CCOC(=O)C1CCCN(C(=O)Cn2ncc3c(C)n(Cc4ccc(F)cc4)c(C)c3c2=O)C1` (configuration not stated), the call was inactive.
Regarding `Cn1c(NCCN(CCO)CCCc2ccc([N+](=O)[O-])cc2)cc(=O)n(C)c1=O`, the “activity change, negative = inhibition” value was inactive: -11.4%.
On the same count and under the same terms, as for `COc1ccc(-c2ccc(-c3noc(-c4cc(OC)cc(OC)c4)n3)c(OC)n2)cc1`, the figure is inactive: 1.29%; as for `COC(=O)Nc1nc2ccc(C(=O)c3ccccc3)cc2[nH]1`, inactive: 9.69%; as for `COc1ccc(-n2ccnc(NCc3cccs3)c2=O)cc1`, inactive: 0.205%.
Still for that read-out and setting: next, `CCOc1ccc2c(c1)c(=O)c(C(=O)c1ccc3c(c1)OCO3)cn2Cc1cccc(F)c1`: inactive: -2.31%.
In the case of `CCOc1ccc(-n2c(C)nc3cc(C(=O)NCc4ccc(C)cc4)ccc32)cc1`, the call was inactive.
Same read-out and setting: as for `CC1CCCN(c2nc(-c3ccccc3O)nc3ccccc23)C1` (configuration not stated), the entry is “inactive”.
With `O=c1c2c3c(sc2nnn1Cc1ccc(F)cc1)CCCC3`, the “activity change, negative = inhibition” value is inactive: 9.8%.
The same measure, in the same setting: next, `Cc1ccc(C(=O)Nc2nnc(S(=O)(=O)N(C)Cc3ccc(F)cc3)s2)cc1`: inactive: -29.8%; `CCOc1ccc(-c2nnc(SCC(=O)Oc3ccccc3)o2)cc1`: inactive: -4.15%.
With `CCn1c(=O)cc(SCC(=O)Nc2cc(Cl)ccc2OC)c2ccccc21`, the compound was classed as inactive.
Same read-out and setting: as for `Cc1ccc(OC(=O)c2cc(-c3ccc4c(c3)OCCO4)on2)cc1C`, the entry is “inactive”.
For `COc1ccc2c(c1)CC(NC(=O)Nc1c(C)cc(C)cc1C)CO2` (configuration not stated), the “activity change, negative = inhibition” value was inactive: -9.69%.
Same read-out and setting: next, `CCOc1ccc(NS(=O)(=O)c2ccc3[nH]cc(C(=O)N(C)Cc4ccccc4)c(=O)c3c2)cc1`: inactive: 0.917%; `COc1ccc(NC(=O)c2oc3ccccc3c2NC(=O)c2cc3ccccc3o2)cc1`: inactive: -1.05%.
Consider `Cc1ccccc1S(=O)(=O)Cc1ccc(C(=O)NC2CCCCC2)o1`, for which the “activity change, negative = inhibition” value is inactive: -5.33%.
As for `CC(=O)N1CCc2c(sc3c2c(=O)n(-c2ccccc2)c(=O)n3CC(=O)Nc2ccccc2C)C1`, the compound was called inactive.
`Cc1cccc(-n2c3nc(=O)[nH]c(=O)c-3cc3c(Cl)cccc32)c1C`: the “activity change, negative = inhibition” value was inactive: -18.5%.
Still for that read-out and setting: as for `COc1ccc(C)cc1S(=O)(=O)N1CCN(c2cccc(Cl)c2)CC1`, the figure is inactive: -20.1%.
In the case of `COc1cc2oc(=O)c(CC(=O)N3CCCCC3)c(C)c2cc1Cl`, the call was inactive.
For `CCOc1cccc2cc(-c3nc4ccc(C(=O)O)cc4[nH]3)c(=O)oc12`, the “activity change, negative = inhibition” value is inactive: -16%.
The same measure, in the same setting: next, `CCOc1ccc(NC(=O)CSc2nnc3scc(-c4ccc(Cl)cc4)n23)cc1`: inactive: 0.478%.
Same read-out and setting: next, `COc1cccc(NC(=O)CSc2ncc(S(=O)(=O)c3ccc(C)c(C)c3)c(=O)[nH]2)c1`: inactive: 6.55%.
Turning to `COc1ccccc1CNC(=O)c1ccc(N2CCCC2)c(NC(=O)NCCC(C)C)c1`, the “activity change, negative = inhibition” value is inactive: -4.05%.
The same measure, in the same setting: as for `Cc1cc(C)c(NC(=O)c2cc3sc(Cl)cc3n2C)c(C)c1`, the figure is inactive: 1.51%; as for `O=C(COc1ccc(F)cc1)Nc1ccc2nc(SCC(=O)N3CCc4ccccc43)sc2c1`, inactive: 4.46%.
Still for that read-out and setting: as for `Cc1oc2ncn(CC(C)C)c(=O)c2c1C(=O)NCCCN1CCCCC1`, the figure is inactive: 0.523%; as for `CC(=O)Nc1ccc(C2Sc3ccccc3NC3=C2C(=O)c2ccccc23)cc1` (configuration not stated), inactive: -23%.
Same read-out and setting: as for `CCOC(=O)c1ccc2oc(=O)n(Cc3ccccc3)c2c1`, the figure is inactive: 4.28%; as for `Cc1ccc(C)c(CN2C(=O)c3ccccc3S(=O)(=O)c3ccc(C(=O)N4CCCCCC4)cc32)c1`, inactive: -1.36%.
For the compound `O=C(NCC(c1ccco1)S(=O)(=O)c1cccs1)c1ccc(F)cc1` (configuration not stated), the “activity change, negative = inhibition” value was inactive: -4.96%.
Same read-out and setting: next, `c1ccc2c(Cc3c[nH]c4ccccc34)c[nH]c2c1`: inactive: -5.18%.
Consider `Cc1csc2nc(COc3ccccc3NC(=O)c3ccco3)cc(=O)n12`, for which the result was inactive.
Consider `CSc1cccc(NC(=O)Cn2c3ncccc3c(=O)n2-c2ccc(C)cc2)c1`, for which the “activity change, negative = inhibition” value is inactive: 0.71%.
On the same count and under the same terms, next, `CCc1c(-c2ccccc2)nc2ccccc2c1C(=O)NCCc1ccccc1`: inactive: -9.97%; `CC(=O)c1ccc(N2CCN(S(=O)(=O)c3ccc(-c4cc(C(F)(F)F)on4)s3)CC2)cc1`: inactive: -4.66%; `Cc1ccccc1OCC(=O)OCc1cc(=O)n2nc(C3CCCCC3)sc2n1`: inactive: -0.114%.
On the same count and under the same terms, as for `Cc1ccc2c(=O)cc(C(=O)Nc3cccc(Cl)c3C)oc2c1C`, the figure is inactive: -4.49%.
On the same count and under the same terms, next, `COc1cc(NC(=O)CCc2nc(-c3cccs3)no2)cc(OC)c1OC`: inactive: 6.75%.
In the case of `Cn1c(=O)c2c(-c3ccccc3Cl)n(-c3cc(Cl)ccc3O)cc2n(C)c1=O`, the compound was called inactive.
On the same count and under the same terms, as for `Cc1cc(Nc2cccc(C)c2C)n2cnnc2n1`, the entry is “inactive”; as for `Cc1ccc(C(=O)CC2(O)C(=O)N(CCc3ccccc3)c3ccc(Cl)cc32)cc1` (configuration not stated), “inactive”; as for `CCCCCOC(=O)CSc1ncnc2c1sc1nc(N3CCOCC3)c3c(c12)CCCC3`, “inactive”.
With `CCC(=O)N1CCN(c2ccc(-n3c(=O)ccc4cnc5ccc(-c6cnc7ccccc7c6)cc5c43)cc2C(F)(F)F)CC1`, the “activity change, negative = inhibition” value is inactive: 9.73%.
As for `COc1ccc(OCCCCn2c(-c3ccc(Cl)cc3)nc3ccccc3c2=O)cc1`, the “activity change, negative = inhibition” value was inactive: -20.7%.
Still for that read-out and setting: as for `Cc1ccc(C(C)C)c(OCC(=O)Nc2ccc(C(=O)OC3CCCCC3)cc2)c1`, the figure is inactive: 3.5%.
Still for that read-out and setting: as for `CCOc1ccc(-c2nc(SCC(=O)Nc3ccc(C)c(C)c3)n3[nH]c(=O)cc3n2)cc1`, the figure is inactive: 1.03%; as for `CC(C)CC(C(=O)NCc1ccc(F)cc1)N1Cc2ccccc2C1=O` (configuration not stated), inactive: -2.5%.
For `COc1ccc(CNC(=O)c2c(O)nc3cc(C)ccn3c2=O)cc1`, the compound was called inactive.
Same read-out and setting: next, `Cc1nc(C)c(-c2ccc(SCC(=O)Nc3ccc(C)c(F)c3)nn2)s1`: “inactive”; `CCc1ccc2ncc3c(-c4ccc(F)cc4)nn(CC(=O)NCc4ccccc4)c3c2c1`: “inactive”.
As to `COCCn1ccc2c(OCC(=O)Nc3cccc(OC)c3)cccc2c1=O`, the “activity change, negative = inhibition” value is inactive: -7.93%.
Same read-out and setting: next, `Cc1cccc(NC(=O)CSc2nc(-c3ccccc3)cn2-c2ccccc2)c1C`: inactive: 0.082%; `Cc1ccc(C)c(-n2c(CCC(=O)O)ccc2-c2ccc(Cl)cc2)c1`: inactive: -6.17%.
The same measure, in the same setting: as for `COc1ccc(Nc2ncc(C(=O)N3CCN(c4cccc(Cl)c4)CC3)c3ccccc23)cc1`, the figure is inactive: 5.97%; as for `COc1cccc(CNC(=O)Cc2ccc(NC(=O)N3CCCCc4ccccc43)cc2)c1OC`, inactive: -5.19%.
Regarding `CCc1nnc(SCc2nc(-c3ccc(OC)c(OC)c3)oc2C)c2cc3sc(C)cc3n12`, the “activity change, negative = inhibition” value was inactive: -1.43%.
Same read-out and setting: as for `COc1ccc(NC(=O)CCS(=O)(=O)c2cccc3nonc23)cc1Cl`, the figure is inactive: 25.9%.
As for `CCOC(=O)C1=C(CS(=O)(=O)c2ccc(C)cc2)NC(=O)NC1c1ccc(C(C)C)cc1` (configuration not stated), the compound was called inactive.
`CN(C(=O)c1ccc2c(c1)N(Cc1cccc(Cl)c1)C(=O)c1ccccc1S2=O)C1CCCCC1` (configuration not stated): the “activity change, negative = inhibition” value is inactive: -9.54%.
Same read-out and setting: as for `Cc1cc(C)cc(N2C(=O)CSC23C(=O)N(CC(=O)NCCc2ccccc2)c2ccccc23)c1` (configuration not stated), the figure is inactive: -5.02%.
Regarding `CC(C)Oc1ccc(CNC(=O)CN2C(=O)CCc3cc(S(=O)(=O)N4CCCCC4)ccc32)cc1`, the outcome was inactive.
